Experimental data from PubChem BioAssay AID2675 (National Center for Advancing Translational Sciences (NCATS), 2010).
The whole screen tested about 280,000 compounds, of which about 100 (0.036%) were called active. The shares of active, inactive and inconclusive entries below differ from those in the screen. The call rests on the fitted dose curve; in most records, active means well fitted inhibition curve with a large enough effect in the signal ratio, with a control signal flat (not every such curve was filed as active); inconclusive means small, poorly fitted or top-dose-only effect, or effect the other way, or a change in a side signal; inactive means no such curve, though single readings can be large or run the other way; the % refers to the signal ratio. Potencies of inconclusive entries are doubtful fits and often do not repeat. “Side channel” marks fits to a control or component signal instead of the main read-out.

molecular target: Muscleblind-like protein 1 (Homo sapiens) (UniProt Q9NR56); assay: qHTS Assay for Inhibitors of MBNL1-poly(CUG) RNA binding; conditions: TR-FRET MBNL1-His/biotin-(CUG)12 binding, 665/545 ratio; activity change, negative = inhibition: at 57.5 µM (top of the series)
Sequence of UniProt Q9NR56 (Q9NR56 whole entry, looked up): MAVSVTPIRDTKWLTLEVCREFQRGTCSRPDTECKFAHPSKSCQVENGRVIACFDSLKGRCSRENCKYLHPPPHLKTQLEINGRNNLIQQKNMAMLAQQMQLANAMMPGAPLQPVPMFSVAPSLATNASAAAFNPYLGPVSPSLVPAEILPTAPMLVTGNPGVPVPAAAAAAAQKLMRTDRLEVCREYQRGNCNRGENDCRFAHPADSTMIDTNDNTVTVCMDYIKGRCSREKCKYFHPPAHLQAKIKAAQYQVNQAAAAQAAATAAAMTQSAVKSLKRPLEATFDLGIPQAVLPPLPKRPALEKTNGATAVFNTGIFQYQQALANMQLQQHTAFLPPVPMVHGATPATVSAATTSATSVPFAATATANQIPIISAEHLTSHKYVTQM
How it was run: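 TR-FRET between His-tagged MBNL1 and biotin-(CUG)12 RNA, detected with Tb anti-His antibody (0.055 ng/ul) and streptavidin-XL665 (5 nM), 60 min at room temperature. Compounds titrated 92 nM to 58 uM; 665/545 nm ratio normalized to buffer and complex controls.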
On the % scale 0 is the no-effect control and ±100 the full control effect; potency means the concentration at half of the fitted maximal effect; tags describe the fitted curve by direction and shape or compound fluorescence and quenching.

SMILES	Potency	activity change, negative = inhibition
COc1cccc2cc(C(=O)Oc3ccccc3)c(=O)oc12	inconclusive: 8.91 µM [quencher, side channel, partial curve]	
COC(=O)c1sccc1-c1ccc(C(=O)Nc2cccnc2)o1	inconclusive: 22.4 µM [quencher, side channel, single point]	
Cc1ccc(CNS(=O)(=O)c2ccc(CN3C(=O)c4cccnc4C3=O)cc2)o1	inconclusive: 12.6 µM [quencher, side channel, partial curve]	
O=C(Cc1cccs1)Nc1ccc(-c2nc3ccccc3[nH]2)cc1		inactive: 138%
CCn1c(=O)n(CC)c2cc(N3CCCC3)c(NC(=O)c3ccccc3)cc21	inconclusive: 39.8 µM [quencher, side channel, single point]	
O=C(CSc1nnc2c(Cl)cc(C(F)(F)F)cn12)NCc1ccc(F)cc1	inconclusive: 7.08 µM [quencher, side channel, single point]	
COc1ccc([N+](=O)[O-])cc1/C=N/NC(=O)CNC(=O)c1cccc(F)c1	inconclusive: 31.6 µM [quencher, partial curve]	
CCC1CCC(N2CCN(c3ccccc3F)CC2)CC1 (centres undefined)		inactive: -9.1%
COc1ccccc1NC(=O)c1ccc2c(c1)OCO2		inactive: 5.96%
O=C(O)CCCNC(=O)c1cncc(Br)c1		inactive: 6.91%
CCOC(=O)N1CCC(NC(=O)Cn2c3c(c(-c4ccccc4Cl)cc2=O)CCC3)CC1	inconclusive: 39.8 µM [quencher, side channel, single point]	
Cc1cc2cc(CNC(=O)c3ccco3)ccc2n1C	inconclusive: 3.98 µM [quencher, side channel, full curve]	
CCSc1nnc(NC(=O)COc2ccccc2[N+](=O)[O-])s1	inconclusive: 12.6 µM [quencher, side channel, partial curve]	
COc1ccc(C(=O)CN2C(=O)c3ccccc3C2=O)c(OC)c1C	inconclusive: 17.8 µM [quencher, side channel, partial curve]	
CC1(c2nnc(-c3ccncc3)o2)CC(c2c(Cl)cccc2Cl)=NO1 (centres undefined)	inconclusive: 100 µM [inhibitor, single point]	
CC(=O)Nc1ccc(/C=C2\CCc3ccccc3C2=O)cc1	inconclusive: 17.8 µM [quencher, side channel, single point]	
O=[N+]([O-])c1cc(F)c(N2CCOCC2)cc1N1CCCCC1	inconclusive: 20 µM [quencher, side channel, partial curve]	
CCOC(=O)c1sc2nc(CC(=O)OC)nc(NCC(=O)OC)c2c1C	inconclusive: 31.6 µM [quencher, single point]	
CC(=O)Nc1cccc(OCc2ccc(S(=O)(=O)Cc3ccccc3)cc2)c1	inconclusive: 79.4 µM [inhibitor, partial curve]	
COc1cc(OC)c(C2N(c3ccccn3)C(=O)C3CCCN32)cc1OC (centres undefined)	inconclusive: 28.2 µM [quencher, side channel, single point]	

SMILES	Potency	activity change, negative = inhibition
Cc1ccc(NC(=O)CCC(=O)OCC(=O)c2ccc(Oc3ccc([N+](=O)[O-])cc3)cc2)cc1C	inconclusive: 12.6 µM [quencher, side channel, partial curve]	
CCSc1nnc(NC(=O)Cn2cnc3ccccc3c2=O)s1	inconclusive: 35.5 µM [fluorescent, side channel, partial curve]	
CCn1c2ccccc2c2nc3cc(OC)c(OC)cc3nc21	inconclusive: 14.1 µM [quencher, partial curve]	
COc1ccc(CC(=O)NNC(=O)Cc2ccc(OC)cc2)cc1		inactive: -5.88%
COc1cccc(NC(=O)N2CCN(c3nc(-c4cccc(OC)c4)cs3)CC2)c1		inactive: -10.4%
O=C(N/N=C/c1ccc([N+](=O)[O-])cc1)c1cccnc1	inconclusive: 1.78 µM [quencher, side channel, full curve]	
O=C(Nc1cccnc1)c1ccc(Cl)cc1[N+](=O)[O-]	inconclusive: 35.5 µM [quencher, side channel, partial curve]	
FC(F)(F)c1nc(-c2ccncc2)ncc1-c1nnnn1-c1ccccc1	inconclusive: 17.8 µM [quencher, side channel, partial curve]	
CN(CC(=O)Nc1ccccc1Cl)C(=O)COC(=O)c1ccc(Cl)cc1[N+](=O)[O-]	inconclusive: 15.8 µM [quencher, side channel, partial curve]	
CCC(=O)Nc1cccc(-c2cc3ccccc3oc2=O)c1	inconclusive: 12.6 µM [quencher, partial curve]	
O=C(N/N=C/c1ccc([N+](=O)[O-])o1)c1cc(-c2ccc(-c3ccccc3)cc2)nc2ccccc12		inactive: 2.05%
Cc1ccccc1C1C(=O)c2ccccc2C1=O	inconclusive: 15.8 µM [quencher, side channel, partial curve]	
O=C(O)C1CCN(C(=O)c2ccccc2N2C(=O)[C@@H]3Cc4c([nH]c5ccccc45)C(c4cccc(Cl)c4)N3C2=O)CC1 (some centres undefined)		inactive: 0.285%
O=C1/C(=C/c2ccccc2F)SC(=S)N1CC(=O)N1CCCCC1c1cccnc1 (centres undefined)	inconclusive: 14.1 µM [quencher, side channel, partial curve]	
O=c1oc2c(Cl)cc(Cl)cc2cc1-c1nnc(Nc2ccccc2F)s1	inconclusive: 1.26 µM [fluorescent, side channel, full curve]	
Cc1ccc2c(c1)COc1c3ccc(C(=O)N[C@@H](CO)C(C)C)cc3nn1-2	inconclusive: 12.6 µM [quencher, side channel, partial curve]	
CC(C)CC(=O)NC(=S)Nc1ccc(S(=O)(=O)N2CCCC2)cc1		inactive: 1.66%
O=c1c2cccnc2[nH]c(=S)n1CCCN1CCN(c2ccccc2F)CC1		inactive: -6.54%
O=C(c1cc(Cl)nc2ccccc12)N1CCN(S(=O)(=O)c2ccccc2[N+](=O)[O-])CC1	inconclusive: 20 µM [quencher, side channel, partial curve]	
